# Measured values from PubChem BioAssay (NCATS).
# Inconclusive results, whose numbers are uncertain, are shown with a selection of clear calls. Potencies of inconclusive entries are doubtful fits and often do not repeat. Calls of active or inactive are those of the source. The call rests on the fitted dose curve; in most records, active means well fitted cell-killing curve with a large enough effect; inconclusive means small, poorly fitted or top-dose-only effect, or effect the other way; inactive means no such curve, though single readings can be large or run the other way.
# Assay: Viability qHTS for spleen associated tyrosine kinase inhibitor (SYKi) naive MV4-11 cells (AID 1963823); further: nearly all actives have a fitted effect of over 40% in size
# Settings: MV4-11 AML viability, CellTiter-Glo luminescence, 72 h; series mostly up to 45 µM
# Method in brief: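 SYK inhibitor-naive MV4-11 cells, 500 per well, exposed to compounds for 72 hr at 37 C, 5% CO2. Viability read as CellTiter-Glo luminescence after 10 min at room temperature.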
# Potency means the concentration at half of the fitted maximal effect; tags describe the fitted curve by direction and shape.
row,SMILES,Potency
1,O=C(Nc1ccn(Cc2ccc(O)cc2C(F)(F)F)n1)c1c(F)cccc1F,"inconclusive: 11.6 µM [cytotoxic, partial curve]"
2,C[C@]1(C(=O)Nc2ccc(F)nc2)CCCN1c1nc(Nc2cc(C3CC3)[nH]n2)c2cccn2n1,"inconclusive: 1.46 µM [cytotoxic, full curve]"
3,CC(=O)c1c(OCCN2CCCCC2)c(OCCC(C)c2ccc(F)cc2)c2oc(C)nc2c1C (centres undefined),active: 10.3 µM
4,Cc1cc(-c2cc(OC(=O)c3ccccc3)ccc2Cl)cc2nnc(Nc3ccc(OCCN4CCCC4)cc3)nc12,active: 2 µM
